In the RNAGym collection of RNA variant scans (doi:10.7554/elife.90254):
The source gives no read counts; variants with many changes may rest on few reads.

B1: LINE1-mini (parent)
chain: GGCAGAGCUCAACACAGCGUGGCAAAGUGGCUGUGGCUAGACUGCC

Variants of: B1
Experiment: self-cleavage, relative activity (ratio to wild type); higher = more cleavage; in vitro, sequencing; the parent is a self-cleaving ribozyme
GGCAGAGAUCAACACUGCGUGGCACAGUGGGUGUGGCUAGACUGCC gave a self-cleavage of 0.
Variant GUCAGAGCUCAACACAGCGUCGCAAAGUGGUUGUGGCUAGACUGCC has a self-cleavage of 0.02.
In the case of GGCAGCGCUCAACUGAGCGUGUUAAAGUGACUGUGGCUAGACUGCC, the self-cleavage is reported as 0.03.
GACAGAGCUCAACACAGCGUGGCAAAGUGUCUGUGGCUAGAGUGCC showed a self-cleavage of 0.02.
Work on GGCAGAGCUCAACACAGCUUGGCAAAGGGGCUUUGGCUAGACUGCC yielded a self-cleavage of 0.07.
With GGCAGAACGCAACACAGCGUGGCAAAGGGGCUGUGGUUAGACUGUC the self-cleavage was 0.02.
Variant GGCAGCGCUCAACACAGAGCGGCAAAGUUGCUAUGGCUAGACUGCC has a self-cleavage of 0.01.
UGCAGAGCUCAACACAGCCAGGCAAAGUGGCUGCGGCUAAACUACC gave a self-cleavage of 0.01.
Variant GGCAGGGCUCAACAAAGCGUGGCAAAUUGGCUGUGGCUAGACUGCC has a self-cleavage of 0.03.
For GGCAUAGCUCAACACAGCGUGGCAAAGUGUCUGUGGCUAGAAUGCC, the self-cleavage was 0.05.
GGCAGAGCUGAACACAACGUGGCAAAGUGGCUGUGGCUACACUGCC gave a self-cleavage of 0.01.
With GUCAGAGCUCAAGACAGCGUGGCAAACUGGUUGUGGCUAGACUGCC the self-cleavage was 0.06.
GGCAGAGGUCAACUCAGCGGGGCAAAGUGGCUGUGGCUAGACUGCC gave a self-cleavage of 0.06.
Work on GGCAGAGCUCCACACAGCUUGCCAGAGUGGCUGUGGCUAGACUGCG yielded a self-cleavage of 0.07.
Variant GUCAGAGCUCAACUCAGCGUGGCAAAGUGGCUGUGGUUAGAUUGCC has a self-cleavage of 0.16.
In the case of GGCAGAGCACAAUACAGCGGGGCAAAGUGGCUGUGGCUAGACUGCC, the self-cleavage is reported as 0.24.
For AGCAGAGCUUAACACAGCGUGGCAAAGUGGCUGUGGCUAGACUGAU, the self-cleavage was 0.07.
In the case of GACAGAGCUCAACACAGCAUGGCAGAGUGGCUGUCGCUAGACUGCC, the self-cleavage is reported as 0.02.
With GGCAGAGCUAAACACAGCGUUGCAAAGUGGCUGUCCCUAGCCUGCC the self-cleavage was 0.01.
GGCAGAGGUCAACCCACCGUGGCUAAGUGGCGGUGGCUAGACUGCC gave a self-cleavage of 0.04.
In the case of GGCCGAGCUCAACACAGCGUGGCAAAGUGGCUGUGGCAAGCCUGCC, the self-cleavage is reported as 0.24.
GGCAGAGCUCAACACAGUGUGGCAAAGUGGCUGUGUCUAGACUGCA gave a self-cleavage of 0.01.
GGCAGAGCUCAGCACAGCGUGGCAAACUGGCUAUGGCUAGACUGCA showed a self-cleavage of 0.11.
Variant GGCAGGGCUCAACACAGCGUGUCAAAGUGGUUGUGGCUAGACUUCC has a self-cleavage of 0.03.
In the case of GGCGGAGCUCAACACAGCGUGGCAAAUUGGCUGUGGCUAUACUGCC, the self-cleavage is reported as 0.07.
Work on GGCAGAGCUCGACACAGCGUGGCAAAGGGCCUGUGGCUAAACUGCC yielded a self-cleavage of 0.01.
AGCAGAGCUCAACACAGCGGGGCAAAGUACCUGUGGCUAGACUGCC showed a self-cleavage of 0.1.
Work on GGCAGAGUUCAACACAGCGUCGCAAAAUGGCCGUGGCUAGACUGCC yielded a self-cleavage of 0.16.
In the case of GGCAGAGGUCAACACAGCGUGACAAAGUGUCUGUGGCUAUACUGCC, the self-cleavage is reported as 0.02.
In the case of GGCAGAACGCAACACAGCGUGGCAAAGUGGCUGUUGCUAGACAGCC, the self-cleavage is reported as 0.03.
In the case of CGCAGAGCUCAACACUGAGUGGCAAAGUGGCUGUGGCUAGACUGCC, the self-cleavage is reported as 0.05.
Variant GGCAGAGAUCAACACAGCGUGGCAAAGUGGAUUUGGCUAGACUGCC has a self-cleavage of 0.21.
Work on GGCAGAGCUCAACACAGCGUGGCAAAGUGUCGGUGGCAAGACUGCC yielded a self-cleavage of 0.14.
In the case of GGAAGAACUCAACAUGGCGUGGCGAACUGGCUGUGGCUAGACUGCC, the self-cleavage is reported as 0.18.
With GGCAAAGCCCAACACAGCGUUGCACAGUGGCUGUGGGUAGACUGCC the self-cleavage was 0.02.
For GGCAGAGCUAAACACAGCGUGGCAAAGUGGCUGUGGCUAUACUUCC, the self-cleavage was 0.02.
With GGCAGAGCCCAGCACAGCGUGACAAAGUGGCUUUGGCUAGACUGUC the self-cleavage was 0.01.
Variant GGCAGAGCUCAACCCAGCGUGGCAAAGUAGAUGUGGCUACCCUGCC has a self-cleavage of 0.05.
GGCAUAGCUCAACACAGCGUGGCAAAGCGGGUGUGGCUAGACUGCC showed a self-cleavage of 0.02.
In the case of GGCAGAGCUCAACACAGCGUGGCAAAUUGGCUGUGGACAGACUGCC, the self-cleavage is reported as 0.04.
GGCAGAGCUCAACACAGCGUGGCAAAGUGGCUGUGGCUCGACUAUC showed a self-cleavage of 0.04.
Variant GGCAGUUCUAAACACAGCGUGGCAAAGUGGUUGUGGCUAGACUGCC has a self-cleavage of 0.02.
Work on GGCAGAGCUCAACACAGCGUUGCUAAGUGUCUGUGGCUAGAGUGCC yielded a self-cleavage of 0.03.
For GGUAGAGCUCAAGACAGCGUUGCAAAGUGGCUGUGGCUAGACUGCC, the self-cleavage was 0.08.
For GGCAGAGCUCAACACAGCGUAGCAAAGUGGCUGUGGCUAGUCGGCC, the self-cleavage was 0.15.
Work on UGGAGACCUCAACACAGGGUGGCGAAGUGGCUGUUGCUUGACUACA yielded a self-cleavage of 0.36.
Work on GGCAGAGCUCAACACAGCGUGGCAAUGUGGCAGUGGCUAUGCCGCC yielded a self-cleavage of 0.02.
For GGCAGAGCUGAACACAGCGUGGUAAAGCGGCUGUGGCUAGACUUCC, the self-cleavage was 0.01.
GGCAGAGCUCAACACAGCGUGGUACAGUGGCUGUGGCUAGACUGAC gave a self-cleavage of 0.13.
Variant GGCGGAGCUCAACACAGACUGGCAAAGUGGCUGUGGCUAGACUGCC has a self-cleavage of 0.03.
GGCAGAGCUCAACACAGCGUUGCAAAGUGUCUGUCGCUAGACUGGC showed a self-cleavage of 0.01.
Work on GGCAGUGCUCGACACAGCGUGGCAAACUGGCUGUGGCUAGACUGCC yielded a self-cleavage of 0.01.
In the case of GGCUGAGCUCAAUACAGGGUGGCAAAGUCGUUGUGGCUAGACUGCC, the self-cleavage is reported as 0.04.
With GGCAGAGCUAUACCCAGCGAGGAGAGGUGGCUGUGGAUAGAGUGCC the self-cleavage was 0.
GGCAGAGCUCAACUCAGCGUAGCAAAGUGGAUGUGGCUAGACUGCC gave a self-cleavage of 0.02.
In the case of GGCAGAGCUCGAUACAGCGUGCCAAAGUGGCUGUGCCUAGACUGCC, the self-cleavage is reported as 0.01.
